Laboratory results from the supplement of paper PMC12217912.
Some of the results follow. Sequences were assembled here from the parent chain. Inactive controls read about 0.05.

B1: TEV protease; numbered along this chain (parent)
chain: MGESLFKGPRDYNPISSSICHLTNESDGHTTSLYGIGFGPFIITNKHLFRRNNGTLVVQSLHGVFKVKDTTTLQQHLVDGRDMIIIRMPKDFPPFPQKLKFREPQREERICLVTTNFQTKSMSSMVSDTSCTFPSGDGIFWKHWIQTKDGQCGSPLVSTRDGFIVGIHSASNFTNTNNYFTSVPKNFMELLTNQEAQQWVSGWRLNADSVLWGGHKVFMVKPEEPFQPVKEATQL

Variants of: B1
Test: raw area under fraction-flipped curve 0-4 h after induction (AUC4h, not background-subtracted), DNA-recorder readout of cleavage of the substrate (dimensionless); higher = more cleavage of the substrate by the protease variant
Settings: temperature: 34 °C; time window: 0-4 h after rhamnose induction
Experimental: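 In vivo DNA recorder in E. coli TOP10(DE3) ΔrhaA at 34 °C. Each TEVp single-site mutant (parent TEVp 0) is paired with a single-site variant of the 7-mer TEVs (canonical ENLYFQ|S). The substrate sits between flexible linkers in a Bxb1-sfGFP-TEVs-SsrA fusion, so cleavage stabilises Bxb1 and speeds flipping of a recombination array, read by NGS. The value is the raw area under the fraction-flipped curve over 0-4 h after rhamnose induction (AUC4h), with ≥20 reads per time point. It is not background-subtracted; inactive controls average about 0.047.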
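Also: Bxb1 expression induced with 0.2% (w/v) L-rhamnose at OD600 near 0.5, cultures sampled hourly, flipped fraction per protease–substrate barcode pair counted by paired-end Illumina sequencing.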

L156W
area with substrate ANLYFQS: 0.0897
area with substrate CNLYFQS: 0.0533
area with substrate DNLYFQS: 0.0707
area with substrate FNLYFQS: 0.0518
area with substrate GNLYFQS: 0.0586
area with substrate HNLYFQS: 0.0567
area with substrate INLYFQS: 0.0576
area with substrate KNLYFQS: 0.0611
area with substrate LNLYFQS: 0.0604
area with substrate MNLYFQS: 0.0581
area with substrate NNLYFQS: 0.062
area with substrate PNLYFQS: 0.0483
area with substrate QNLYFQS: 0.0431
area with substrate RNLYFQS: 0.0634
area with substrate SNLYFQS: 0.0543
area with substrate TNLYFQS: 0.0554
area with substrate VNLYFQS: 0.0504
area with substrate WNLYFQS: 0.0619
area with substrate YNLYFQS: 0.0581

G166V
area with substrate ANLYFQS: 0.0466
area with substrate CNLYFQS: 0.0385
area with substrate DNLYFQS: 0.0535
area with substrate GNLYFQS: 0.053
area with substrate HNLYFQS: 0.049
area with substrate INLYFQS: 0.0493
area with substrate KNLYFQS: 0.0494
area with substrate LNLYFQS: 0.0645
area with substrate NNLYFQS: 0.0489
area with substrate PNLYFQS: 0.0503
area with substrate TNLYFQS: 0.0545
area with substrate WNLYFQS: 0.04
area with substrate YNLYFQS: 0.0429

G166R
area with substrate ANLYFQS: 0.0623
area with substrate CNLYFQS: 0.048
area with substrate DNLYFQS: 0.0543
area with substrate FNLYFQS: 0.0487
area with substrate GNLYFQS: 0.0438
area with substrate HNLYFQS: 0.0503
area with substrate INLYFQS: 0.0525
area with substrate LNLYFQS: 0.0555
area with substrate MNLYFQS: 0.065
area with substrate NNLYFQS: 0.0417
area with substrate PNLYFQS: 0.0503
area with substrate SNLYFQS: 0.0583
area with substrate TNLYFQS: 0.051
area with substrate WNLYFQS: 0.0546
area with substrate YNLYFQS: 0.0475

N175F
area with substrate ANLYFQS: 0.0615
area with substrate CNLYFQS: 0.0626
area with substrate DNLYFQS: 0.0636
area with substrate HNLYFQS: 0.0625
area with substrate KNLYFQS: 0.0601
area with substrate LNLYFQS: 0.054
area with substrate MNLYFQS: 0.0742
area with substrate NNLYFQS: 0.0485
area with substrate SNLYFQS: 0.0657
area with substrate TNLYFQS: 0.0738
area with substrate VNLYFQS: 0.0808
area with substrate WNLYFQS: 0.064
area with substrate YNLYFQS: 0.0581

N175C
area with substrate ANLYFQS: 0.0455
area with substrate CNLYFQS: 0.0636
area with substrate DNLYFQS: 0.0631
area with substrate GNLYFQS: 0.0692
area with substrate HNLYFQS: 0.0598
area with substrate INLYFQS: 0.0602
area with substrate LNLYFQS: 0.0646
area with substrate NNLYFQS: 0.0489
area with substrate PNLYFQS: 0.0564
area with substrate QNLYFQS: 0.0678
area with substrate SNLYFQS: 0.0658
area with substrate TNLYFQS: 0.0548
area with substrate VNLYFQS: 0.0638
area with substrate WNLYFQS: 0.0669
area with substrate YNLYFQS: 0.0611

I164C
area with substrate ANLYFQS: 0.0603
area with substrate CNLYFQS: 0.0571
area with substrate DNLYFQS: 0.0609
area with substrate FNLYFQS: 0.0558
area with substrate GNLYFQS: 0.0535
area with substrate HNLYFQS: 0.0609
area with substrate INLYFQS: 0.0697
area with substrate KNLYFQS: 0.0586
area with substrate LNLYFQS: 0.0592
area with substrate MNLYFQS: 0.0559
area with substrate NNLYFQS: 0.0744
area with substrate PNLYFQS: 0.0625
area with substrate RNLYFQS: 0.0483
area with substrate SNLYFQS: 0.0686
area with substrate TNLYFQS: 0.061
area with substrate WNLYFQS: 0.0499
area with substrate YNLYFQS: 0.0596
